# Data taken from PubChem BioAssay AID1159614 (National Center for Advancing Translational Sciences (NCATS), 2016).
# Among all 45,000 compounds or so, about 65 (0.1%) were called active. Calls come from the whole dose curve; as a rule, active = well fitted activation curve with a large enough effect; inconclusive = small, poorly fitted or top-dose-only effect; inactive = no such curve, though single readings can be large or run the other way. The list shows a part of the results.
# Target: Galactocerebrosidase (Homo sapiens) (UniProt P54803)
# Test: A Novel Cell-Based Assay to Identify Small Molecules for B -Galactocerebrosidase; note: 0% is about no effect; nearly all actives have a fitted effect of over 65% in size
# Details: 145M-Twi-hGALC-G270D cells (Twitcher mouse brain line with human GALC G270D), HMU-beta-Gal fluorescence, 48 h; series mostly up to 57.5 µM; activation: at the top concentration
# Summary of the method: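 Fluorescence readout: HMU-β-gal cleavage by mutant GALC (0.1 mM final, citrate/phosphate pH 5.2 with 1 mg/mL taurocholate), stopped with carbonate/bicarbonate plus Triton X-100. Cells: murine Twitcher 145M-Twi expressing human G270D GALC; qHTS for activators.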
# UniProt P54803, sequence (P54803 whole entry, looked up): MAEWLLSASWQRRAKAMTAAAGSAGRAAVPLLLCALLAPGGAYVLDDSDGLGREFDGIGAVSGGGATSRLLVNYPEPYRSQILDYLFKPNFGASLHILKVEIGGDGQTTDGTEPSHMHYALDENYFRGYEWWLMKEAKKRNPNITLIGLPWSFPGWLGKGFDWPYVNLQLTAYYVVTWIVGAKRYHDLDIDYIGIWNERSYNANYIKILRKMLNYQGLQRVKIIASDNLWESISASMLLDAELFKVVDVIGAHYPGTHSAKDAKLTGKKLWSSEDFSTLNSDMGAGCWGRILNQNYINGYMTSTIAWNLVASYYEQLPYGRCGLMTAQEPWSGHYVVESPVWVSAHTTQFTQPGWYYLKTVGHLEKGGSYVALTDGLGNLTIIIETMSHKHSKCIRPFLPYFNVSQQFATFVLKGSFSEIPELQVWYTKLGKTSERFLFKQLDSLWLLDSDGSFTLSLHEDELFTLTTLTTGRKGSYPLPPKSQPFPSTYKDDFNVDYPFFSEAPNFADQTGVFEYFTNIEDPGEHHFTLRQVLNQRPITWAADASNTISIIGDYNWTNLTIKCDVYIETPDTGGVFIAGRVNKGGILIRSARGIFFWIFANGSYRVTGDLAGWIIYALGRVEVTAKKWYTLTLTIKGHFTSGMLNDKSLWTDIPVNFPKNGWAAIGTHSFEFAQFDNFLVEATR
row,Compound,activation
1,CCOC(=O)Cn1c(=O)n(C2CCCCC2)c2nc(-c3ccccc3Cl)nc(C(N)=O)c21,inactive: 16%
2,CCC(CC)C(=O)Nc1nnc2n1CCS2,inactive: -13%
3,COc1ccc(CCN2C(=O)c3[nH]nc(-c4ccccc4O)c3C2c2ccc(O)c(OC)c2)cc1 (stereo unspecified),inactive: -9.31%
4,COc1ccc(-c2c(C)nn3c(-c4ccccc4)cc(-c4ccccc4)nc23)cc1OC,inactive: -18.8%
5,COC(=O)c1ccc(NC(=O)CCNS(=O)(=O)c2cccc3nsnc23)cc1,inactive: 1.96%
6,O=C(NC1CCCCC1)c1cc(Nc2ccccc2)nc2ccccc12,inactive: -16%
7,COc1ccccc1C(=O)NCC1(N2CCN(C)CC2)CCCCC1,inactive: -14.1%
8,Cc1ccc(C)c(NC(=O)N2CCC(N3CCN(Cc4ccc(F)cc4)C(=O)C3=O)CC2)c1,inactive: -14.1%
9,COc1ccccc1CNC(=O)c1ccc(CN2CC(=O)N3CCCCC3C2=O)cc1 (stereo unspecified),inactive: -21.9%
10,CCN(CC)c1ccc(NC(=O)CN2CCN(CC(=O)Nc3ccccc3OC)CC2)cc1,inactive: -19.1%
11,Cc1cc2c(cc1S(=O)(=O)N(C)CC(=O)Nc1cccc(C#N)c1)OCC(=O)N2,inactive: -9.86%
12,CC1=Nc2cc(C(=O)NC3CCCC3)ccc2Sc2ccc(Br)cc21,inactive: -9.46%
13,COCCCNC(=O)C1CCCN(S(=O)(=O)c2ccc3c(c2)oc(=O)n3C)C1 (stereo unspecified),inactive: -2.68%
14,CCOC(=O)c1cccc(NC(=O)CCn2nc(C)c3c(C)n(-c4ccccc4)nc3c2=O)c1,inactive: -22.2%
15,CCOCCCNC(=O)c1c[nH]c2ccc(S(=O)(=O)Nc3cccc(Cl)c3C)cc2c1=O,inactive: -13.3%
16,Cn1c(=O)oc2cc(S(=O)(=O)N3CCCC(C(=O)N4CCN(c5ccccc5F)CC4)C3)ccc21 (stereo unspecified),inactive: -7.7%
17,CCOC(=O)N1CCc2c(sc3c2c(=O)n(-c2ccc(Cl)cc2)c(=O)n3Cc2cccc(C)c2)C1,inactive: -7.89%
18,Cc1c(NC(=O)c2ccccc2)cc(C(C)C)c(O)c1S(=O)(=O)c1ccc(Cl)cc1,inactive: -11.6%
19,Fc1ccc(Nc2ncnc3c2nc2n3CCCC2)cc1,inactive: -1.68%
20,CCOCCCn1c(SCC(=O)NCCCOC)nc2c(sc3ccccc32)c1=O,inactive: 33%
21,Cc1ccccc1Nc1cc(C(=O)NC2CCCCC2)c2ccccc2n1,inactive: -14.2%
22,CSc1cccc(Nc2cc(C(=O)NCCCN(Cc3ccccc3)C(C)C)c3ccccc3n2)c1,inactive: -13.2%
23,COc1ccccc1N1CCN(S(=O)(=O)c2cc3[nH]c(=O)c(=O)[nH]c3cc2C)CC1,inactive: 1.78%
24,O=C(NCCS(=O)(=O)N1CCN(c2ccc(F)cc2)CC1)c1cc(=O)c2ccccc2o1,inactive: 1.32%

row,Compound,activation
1,Cc1ccc(C)c(NC(=O)C(Cc2ccccc2)N2Cc3ccccc3C2=O)c1 (stereo unspecified),inactive: -9.91%
2,Cc1ccc(CCNc2ncnc3onc(C)c23)cc1,inactive: -17.4%
3,Cc1ccc2occ(CC(=O)N(Cc3ccc(N(C)C)cc3)C3CCS(=O)(=O)C3)c2c1 (stereo unspecified),inactive: -16.7%
4,CCOc1ccc(CNC(=O)CCC(=O)N2CCSc3ccccc32)cc1,inactive: 3.9%
5,Cc1ccc(Cl)cc1N(C)C(=O)c1cnc(N2CCOCC2)c2ccccc12,inactive: 8.19%
6,COc1ccc(N2CCN(C(=O)c3ccc4nc(N5CCC(C)CC5)sc4c3)CC2)cc1,inactive: -13.4%
7,CCN(CC)C(=O)C1CCCN(c2ncnc3onc(C)c23)C1 (stereo unspecified),inactive: -11.3%
8,COC(=O)c1cc2oc3ccccc3c2n1Cc1c(F)cccc1Cl,inactive: -4.85%
9,COc1ccc2nc(N3CCN(C(=O)C4CC4)CC3)sc2c1,inactive: -14.9%
10,COc1ccc(NC(=O)N2CCc3c([nH]c4ccc(OC)cc34)C2c2ccc(OC)cc2)cc1 (stereo unspecified),inactive: -12.3%
11,CCc1cccc(NC(=O)CN2CCCN(Cc3cccc(C)c3)S2(=O)=O)c1,inactive: -8.48%
12,CC(NC(=O)c1sc2ncccc2c1-n1cccc1)c1ccccc1 (stereo unspecified),inactive: -27.9%
13,COc1cccc(-c2nc3c(C#N)c[nH]n3c2NC2CCCCC2)c1OC,inactive: -14.2%
14,Cc1ccc(Cn2c(=O)n(CC3CCC(C(=O)N4CCOCC4)CC3)c(=O)c3sccc32)cc1 (stereo unspecified),inactive: -9.17%
15,COc1cc(Nc2c(C#N)cnc3cc(OCCCN4CCN(C)CC4)c(OC)cc23)c(Cl)cc1Cl,inactive: -22.3%
16,O=C(NCC(c1cccnc1)N1CCN(Cc2ccccc2)CC1)C(=O)Nc1cccc(F)c1 (stereo unspecified),inactive: -18.7%
17,CCOC(=O)CC(NC(=O)Cn1nnc(-c2ccc(C(F)(F)F)cc2)n1)c1ccc(C)cc1 (stereo unspecified),inactive: -9.42%
18,O=C(CC1Oc2ccc(Cl)cc2NC1=O)NCc1ccccc1 (stereo unspecified),inactive: -21.2%
19,COCCN1C(=O)N(c2cccc(OC)c2)C(=O)C1CC(=O)Nc1ccccc1 (stereo unspecified),inactive: -9.32%
20,COc1cc2ccccc2cc1C(=O)N1CCN(c2nc3c(F)cccc3s2)CC1,inactive: -2.98%
21,O=C(NCc1ccc(Cl)cc1)C(=O)NCC(c1ccc2c(c1)OCO2)N1CCOCC1 (stereo unspecified),inactive: -7.6%
22,CC(=O)Nc1ccc(NC(=O)c2csnn2)cc1,inactive: -8.8%
23,CCCCc1nn2c(=O)cc(COC(=O)c3cccc(NC(=O)c4cccs4)c3)nc2s1,inactive: 0.681%
24,CCN(CC)C(=O)c1sc2c(c1C)c(=O)n(-c1ccc(C)c(C)c1)c(=O)n2CC(=O)Nc1ccc(OC)cc1OC,inactive: -26.1%

row,Compound,activation
1,Cc1cc(F)ccc1NC(=O)CCS(=O)(=O)c1cc2c3c(c1)CCN3C(=O)CC2,inactive: 0.0197%
2,COc1ccc(OC)c(CNS(=O)(=O)c2cc(-c3onc(C)c3C)ccc2C)c1,inactive: -8.29%
3,O=C(c1ccccc1)N1CCC(c2nc3ccccc3o2)CC1,inactive: -2.09%
4,CCOc1ccc2c(c1)c(=O)c(C(=O)c1ccccc1)cn2Cc1ccccc1F,inactive: -21.6%
5,CC(=O)c1ccc(NC(=O)c2cc3c([nH]c2=O)CC(c2ccccc2)CC3=O)cc1 (stereo unspecified),inactive: -16.6%
6,CN1C(=O)Cc2cc(S(=O)(=O)CCC(=O)Nc3ccc(Cl)cc3)ccc21,inactive: -9.83%
7,COc1ccc(CCNC(=O)c2cnn(-c3cccc(C)c3)c2C2CCNCC2)cc1OC,inactive: -20.3%
8,Cc1ccc(S(=O)(=O)c2[nH]c(-c3ccccc3)nc2SC(C)C(=O)O)cc1 (stereo unspecified),inactive: -11.9%
9,COc1ccc(N2CCN(CCCNC(=O)c3nnc(Cc4ccccc4Cl)o3)CC2)cc1,inactive: -10.5%
10,CCS(=O)(=O)N1CC(=O)N(c2cc(C)cc(C)c2)C(C)(C(=O)NC2CCCCC2)C1 (stereo unspecified),inactive: -10.3%
11,Cc1cc(C)n2c(Nc3ccc4c(c3)OCCO4)c(-c3ccccc3)nc2n1,inactive: -17.7%
12,CC(=O)c1ccc(NC(=O)CSc2nnc(-c3ccncc3)n2-c2ccccc2)cc1,inactive: -11%
13,COc1ccc(/C=C/C(=O)Nc2cc(-c3nc4ccccc4o3)ccc2OC)cc1,inactive: -14.4%
14,Oc1c(Cl)cc(Cl)c2cccnc12,inactive: -19.1%
15,COc1ccc(CNC(=O)C2CCN(C(=O)c3cnn(-c4ccccc4)c3-n3cccc3)CC2)cc1,inactive: -30.2%
16,Cc1ccc(NC(=O)CSc2nnc(-c3cc4occc4n3C)n2-c2ccccc2C)c(C)c1,inactive: -7.94%
17,FC(F)(F)c1cccc(N2CCN(c3nc4ccccc4n4cnnc34)CC2)c1,inactive: -36.9%
18,COc1ccc(-n2c(SC)nc3sc4c(c3c2=O)CCN(C(C)=O)C4)cc1,inactive: -5.31%
19,O=c1c2sc3ccccc3c2n(Cc2cccc(C(F)(F)F)c2)c(=O)n1-c1ccccc1,inactive: -1.84%
20,CC(C)Oc1ccc(CNC(=O)CN2C(=O)c3cccnc3Oc3ccc(Cl)cc32)cc1,inactive: -33.6%
21,CCS(=O)(=O)N1CCc2cc(C(=O)NC(C)c3ccccc3)ccc21 (stereo unspecified),inactive: -20.4%
22,Cc1ccn2c(=O)cc(COc3ccc(NC(=O)C(C)(C)C)cc3)nc2c1,inactive: -13.5%
23,Cc1ccc2c(c1)N(C(=O)Nc1ccc(Br)cc1F)CCO2,inactive: -16.5%
24,COC(=O)c1ccccc1NC(=O)CSc1n[nH]c(C)n1,inactive: -10.4%

row,Compound,activation
1,CC(C)(CC(=O)NCc1ccc(Cl)cc1Cl)CC1=NS(=O)(=O)c2ccccc2N1,inactive: 7.83%
2,Cn1c2c(c(=O)n(C)c1=O)C(c1ccccc1C(F)(F)F)CC(=O)N2 (stereo unspecified),inactive: -0.539%
3,CCOC(=O)c1ccc(CN(Cc2ccc(F)cc2)S(=O)(=O)c2ccc(F)c(C(=O)Nc3ccccc3C(F)(F)F)c2)cc1,inactive: -7.35%
4,COC(=O)c1ccc(NS(=O)(=O)c2ccc3c(c2)n(C)c(=O)c(=O)n3C)cc1,inactive: -9.13%
5,COc1ccc(S(=O)(=O)c2cc3cc(C(C)(C)C)cc(O)c3oc2=O)cc1,inactive: -34.4%
6,Cn1c(COc2ccccc2C(C)(C)C)nc2ccccc21,inactive: -5.18%
7,CCCCCn1c(=N)c(S(=O)(=O)c2ccc(C)cc2)cc2c(=O)n3cc(C)ccc3nc21,inactive: -13.8%
8,CCc1ccccc1N(CC)C(=O)C(=O)Nc1ccc2nc3n(c(=O)c2c1)CCCCC3,inactive: -0.167%
9,O=C(c1ccc2c(c1)N(Cc1cccc(Cl)c1)C(=O)c1ccccc1S2(=O)=O)N1CCc2ccccc21,inactive: -12.5%
10,COc1cc(Cl)c(C)cc1NC(=O)C1CCCN(c2ncnc3onc(-c4ccc(F)cc4)c23)C1 (stereo unspecified),inactive: -4.45%
11,CCNC(=O)CC1C(=O)N(c2ccc(F)cc2)C(=O)N1Cc1ccc(OC)c(OC)c1 (stereo unspecified),inactive: -0.0347%
12,Cc1ccc(C(=O)N2CCN(c3cccc(Cl)c3)CC2)cc1-n1c(C)nc2cccnc21,inactive: -7.56%
13,COc1ccc2c(c1)c1c(c(=O)n(-c3ccc(F)c(Cl)c3)c(=O)n1Cc1ccccc1F)n2C,inactive: -16.5%
14,CCCCNC(=O)c1ccc2c(c1)NC(=O)C(C(C)C)N2 (stereo unspecified),inactive: -3.24%
15,COC(=O)c1c(-c2ccc(Cl)cc2)noc1N1CCN(c2ccccc2F)CC1,inactive: -0.0835%
16,CCOC(=O)C1=C(CN(CC)Cc2ccccc2)NC(=O)NC1c1ccc(OC)cc1 (stereo unspecified),inactive: -18.4%
17,O=C1CN(C(=O)c2cccc(Br)c2)C(c2ccccc2)c2cc(Cl)ccc2N1 (stereo unspecified),inactive: -18.8%
18,CCOc1cccc(-c2nc3ccccc3c(=O)o2)c1,inactive: -2.71%
19,COc1cccc(C(=O)Nc2nc(-c3nnn(-c4cc(C)ccc4C)c3C)ns2)c1,inactive: -8.11%
20,N#Cc1c(-n2ncnc2-c2cccc(Cl)c2)sc2c1CCCCC2,inactive: -7.19%
21,COc1ccccc1NC(=O)C(=O)c1cc(C)n(-c2cc(C)cc(C)c2)c1C,inactive: -9.32%
22,O=C(CNS(=O)(=O)c1ccc(Br)s1)N1CCN(c2ccc(F)cc2)CC1,inactive: -12%
23,C[C@]12CCC(=O)C=C1CC[C@@H]1[C@@H]2CC[C@@]2(C)[C@H]1CC[C@]2(O)C(=O)CO,inactive: -12.8%
24,CCS(=O)(=O)NCCc1sc2nc(-c3ccc(OC)cc3)nn2c1C,inactive: -14.4%
